# Measurements: PMC3181343
# Sequences of proteins named here, by UniProt entry; tags and fusion partners are left off. Residues count along the entry.
# UniProt P23385, residues 19-1199: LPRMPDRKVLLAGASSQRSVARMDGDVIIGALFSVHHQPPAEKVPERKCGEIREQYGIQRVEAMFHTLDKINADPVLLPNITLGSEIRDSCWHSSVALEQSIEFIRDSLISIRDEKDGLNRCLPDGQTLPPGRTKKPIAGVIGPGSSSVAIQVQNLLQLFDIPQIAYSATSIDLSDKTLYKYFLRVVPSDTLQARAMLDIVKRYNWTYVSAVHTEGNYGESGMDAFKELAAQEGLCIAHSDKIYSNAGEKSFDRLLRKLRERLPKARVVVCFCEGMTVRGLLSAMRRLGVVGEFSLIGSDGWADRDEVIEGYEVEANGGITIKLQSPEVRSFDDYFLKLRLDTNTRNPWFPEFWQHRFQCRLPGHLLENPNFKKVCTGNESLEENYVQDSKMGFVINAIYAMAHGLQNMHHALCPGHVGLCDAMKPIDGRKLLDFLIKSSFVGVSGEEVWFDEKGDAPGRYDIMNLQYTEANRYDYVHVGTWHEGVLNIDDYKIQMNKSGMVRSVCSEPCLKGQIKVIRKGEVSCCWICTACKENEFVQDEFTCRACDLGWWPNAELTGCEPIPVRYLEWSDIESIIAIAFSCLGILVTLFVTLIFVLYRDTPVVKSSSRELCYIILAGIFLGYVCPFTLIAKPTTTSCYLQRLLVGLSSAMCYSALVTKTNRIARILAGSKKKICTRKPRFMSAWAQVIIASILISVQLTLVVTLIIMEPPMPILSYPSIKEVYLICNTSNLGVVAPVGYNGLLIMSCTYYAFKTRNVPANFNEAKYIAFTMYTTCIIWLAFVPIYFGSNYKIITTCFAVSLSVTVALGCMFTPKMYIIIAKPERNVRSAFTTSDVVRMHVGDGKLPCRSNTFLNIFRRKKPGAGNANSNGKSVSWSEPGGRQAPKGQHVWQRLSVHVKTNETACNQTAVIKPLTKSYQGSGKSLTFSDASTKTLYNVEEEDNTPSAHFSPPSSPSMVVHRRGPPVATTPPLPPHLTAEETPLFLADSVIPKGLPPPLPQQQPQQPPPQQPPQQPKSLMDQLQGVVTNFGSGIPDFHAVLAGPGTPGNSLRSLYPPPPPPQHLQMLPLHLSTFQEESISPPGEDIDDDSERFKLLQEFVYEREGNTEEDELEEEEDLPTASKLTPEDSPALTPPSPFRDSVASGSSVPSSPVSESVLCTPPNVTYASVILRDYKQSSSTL
# UniProt P31424, residues 21-1203: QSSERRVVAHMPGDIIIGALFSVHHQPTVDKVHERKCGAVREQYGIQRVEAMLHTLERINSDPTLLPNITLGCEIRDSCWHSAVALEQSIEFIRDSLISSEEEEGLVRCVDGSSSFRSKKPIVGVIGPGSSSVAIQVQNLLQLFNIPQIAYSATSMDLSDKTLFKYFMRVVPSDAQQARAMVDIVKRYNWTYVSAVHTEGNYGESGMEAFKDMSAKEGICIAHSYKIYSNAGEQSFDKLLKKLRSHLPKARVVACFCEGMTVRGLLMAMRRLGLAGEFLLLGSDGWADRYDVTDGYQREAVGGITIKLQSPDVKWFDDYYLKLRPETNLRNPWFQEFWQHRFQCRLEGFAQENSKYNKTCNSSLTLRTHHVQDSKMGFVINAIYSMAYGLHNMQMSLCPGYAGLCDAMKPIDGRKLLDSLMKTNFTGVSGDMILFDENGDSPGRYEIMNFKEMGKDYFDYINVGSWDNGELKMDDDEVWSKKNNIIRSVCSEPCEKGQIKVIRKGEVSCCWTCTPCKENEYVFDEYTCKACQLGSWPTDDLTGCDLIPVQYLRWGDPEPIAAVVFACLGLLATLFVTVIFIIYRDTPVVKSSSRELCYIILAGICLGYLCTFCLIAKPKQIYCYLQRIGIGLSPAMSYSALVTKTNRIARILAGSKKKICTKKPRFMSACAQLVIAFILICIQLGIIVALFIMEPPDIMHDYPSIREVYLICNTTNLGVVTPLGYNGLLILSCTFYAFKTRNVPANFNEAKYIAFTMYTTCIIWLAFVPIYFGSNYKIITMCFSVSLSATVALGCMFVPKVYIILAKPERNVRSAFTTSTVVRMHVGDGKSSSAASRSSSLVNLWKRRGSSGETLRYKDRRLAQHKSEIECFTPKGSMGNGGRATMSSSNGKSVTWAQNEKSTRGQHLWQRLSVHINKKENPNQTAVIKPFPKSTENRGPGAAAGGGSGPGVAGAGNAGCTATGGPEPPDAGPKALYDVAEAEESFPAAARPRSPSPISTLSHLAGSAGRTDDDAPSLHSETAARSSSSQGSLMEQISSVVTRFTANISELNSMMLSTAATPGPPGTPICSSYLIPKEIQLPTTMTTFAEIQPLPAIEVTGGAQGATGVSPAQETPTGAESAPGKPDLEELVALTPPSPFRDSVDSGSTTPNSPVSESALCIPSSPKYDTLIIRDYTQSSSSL
# UniProt P70498: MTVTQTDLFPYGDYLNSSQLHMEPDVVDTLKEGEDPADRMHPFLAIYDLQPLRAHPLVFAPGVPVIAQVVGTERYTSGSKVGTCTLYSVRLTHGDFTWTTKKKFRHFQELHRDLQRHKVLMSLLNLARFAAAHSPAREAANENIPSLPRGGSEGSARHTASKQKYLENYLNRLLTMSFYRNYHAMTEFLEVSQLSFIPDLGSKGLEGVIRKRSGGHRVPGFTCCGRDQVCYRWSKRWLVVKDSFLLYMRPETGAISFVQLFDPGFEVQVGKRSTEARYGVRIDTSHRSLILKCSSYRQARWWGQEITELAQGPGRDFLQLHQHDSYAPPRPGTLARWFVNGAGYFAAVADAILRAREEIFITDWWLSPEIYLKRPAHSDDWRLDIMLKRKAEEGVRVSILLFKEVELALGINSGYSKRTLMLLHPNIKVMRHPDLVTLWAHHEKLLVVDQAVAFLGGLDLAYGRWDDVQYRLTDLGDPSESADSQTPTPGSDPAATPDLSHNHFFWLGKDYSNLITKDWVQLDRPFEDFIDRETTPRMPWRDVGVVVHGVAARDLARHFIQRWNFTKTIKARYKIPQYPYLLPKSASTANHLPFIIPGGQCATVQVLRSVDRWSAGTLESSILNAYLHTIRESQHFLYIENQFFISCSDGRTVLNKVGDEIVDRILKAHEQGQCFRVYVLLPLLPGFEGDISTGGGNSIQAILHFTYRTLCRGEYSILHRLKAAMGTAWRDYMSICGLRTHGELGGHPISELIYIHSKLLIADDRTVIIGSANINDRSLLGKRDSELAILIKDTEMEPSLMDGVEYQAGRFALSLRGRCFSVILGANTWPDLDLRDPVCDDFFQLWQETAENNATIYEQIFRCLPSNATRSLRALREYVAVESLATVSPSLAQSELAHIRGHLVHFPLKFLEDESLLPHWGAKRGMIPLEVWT
# These are yes or no findings as the source states them, for the method shown. In cells and extracts the contact can be indirect. Some entries that bind do so weakly or less than the wild type.
# B1: phospholipase D1 (enzyme, UniProt P70496 1-1074)
# chain: MSLRSEARVNTSTLQKIAADMSNLIENLDTRELHFEGEEVEYDASPGDPTAQEACIPFSSIYNTQGFKEPNIQIYLSGCPVKAQVLEVERFTSTSRMPSVNLYTIELTHGEFTWQVKRKFKHFQEFHRELLKYKAFIRIPIPTKRHTFRRQNVKEEPREMPSLPRSSENAIQEEQFFGRRKQLEDYLTKILKMPMYRNYHATTEFLDVSQLSFIHDLGPKGLEGMIMKRSGGHRIPGVNCCGHGRACYRWSKRWLIVKDSFLLYMKPDSGAIAFVLLVDKEFRIKVGKKETETKYGLRIDNLSRTLILKCNSYRHARWWGGAIEEFIQKHGTDFLKDHRFGSYAAVHENILAKWYVNAKGYFEDIANAMEGATEEIFITDWWLSPEIFLKRPVVEGNRWRLDCILKRKAQQGVRIFIMLYKEVELALGINSEYTKRTLMRLHPNIKVMRHPDHVSSSVYLWAHHEKLVIIDQSVAFVGGIDLAYGRWDDNEHRLTDVGSVKRVTSGQSLGSLTAASVESMESLSLKDKHQSHKNEPVLKSVNDTDMKLKGIGKSRKFSKFSLYRQLHRRNLHNSDSISSVDSASSYFNHYRSHQNLIHGIKPHLKLFRPSSESEQGLTRHSADTGSIRSVQTGVGELHGETRFWHGKDYCNFVFKDWVQLDKPFADFIDRYSTPRMPWHDIGSVVHGKAARDVARHFIQRWNFTKIMKPKYRSLSYPFLLPKSQATAHELRYQVPGAVHAKAQLLRSAADWSAGIKHHEESIHAAYTHVIENSKHYIYIENQFFISCADDKVVFNKVGNAIAQRILKAHREGQRYRVYIVIPLLPGFEGDISTGGGNALQAIMHFNYRTMCRGESSILEQLKPELGNKWINYISFCGLRTHAELEGNLVTELIYVHSKLLIADDNTVIIGSANINDRSMLGKRDSEMAVIVQDTETVPSVMDGKEYQAGRFAQGLRLECFRLVLGYLSDPSEDIQDPVSDKFFKEIWVSTAARNATIYDKVFRCLPNDEVHNLIQLRDFINKPILAKEDRLRAEEELRKIRGFLVQFPFYFLSEENLLPSVGTKEAIVPMEVWT
# Tests used:
# [1] = biological target: metabotropic glutamate receptor 1 (rat (endogenous in amygdala of Sprague-Dawley rats)) (UniProt P23385); test: co-IP; amygdala extracts from cocaine CPP rats; IP with mGluR1 or mGluR5 antibody, immunoblot with PLD1 or PLD2 antibody
# [2] = biological target: metabotropic glutamate receptor 5 (rat (endogenous in amygdala of Sprague-Dawley rats)) (UniProt P31424); test: as above
# [3] = biological target: metabotropic glutamate receptor 1 (rat (endogenous in amygdala of Sprague-Dawley rats)) (UniProt P23385); test: condition: only amygdala of saline-treated animals (no cocaine CPP); co-IP; amygdala extracts from saline-treated rats; IP with mGluR1 or mGluR5 antibody, immunoblot with PLD1 or PLD2 antibody
# [4] = biological target: metabotropic glutamate receptor 5 (rat (endogenous in amygdala of Sprague-Dawley rats)) (UniProt P31424); test: as above
molecule,measurement,setting,value
phospholipase D2 (from UniProt P70498 1-933) (enzyme),binding,[1],binds
same,binding,[2],binds
same,binding,[3],no binding
same,binding,[4],no binding
B1,binding,[1],binds
same,binding,[2],binds
same,binding,[3],no binding
same,binding,[4],no binding
